Test results from patent publication US20240124587A1 (ZHEJIANG DOER BIOLOGICS, published 2024).

How the values were obtained:
[1] = biological target: T1, VEGF (UniProt P15692-4 27-191, limits assumed); test: cell-based or functional assay
T1 sequence (looked up): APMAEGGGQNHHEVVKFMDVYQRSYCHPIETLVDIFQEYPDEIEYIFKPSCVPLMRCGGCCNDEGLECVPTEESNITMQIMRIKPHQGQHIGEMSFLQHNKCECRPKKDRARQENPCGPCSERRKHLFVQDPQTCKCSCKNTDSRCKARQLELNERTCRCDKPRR

[2] = biological target: TGFβ1 (UniProt P01137 fragment); test: cell-based or functional assay

Chain of TGFβ1 (P01137 279-390 limits assumed): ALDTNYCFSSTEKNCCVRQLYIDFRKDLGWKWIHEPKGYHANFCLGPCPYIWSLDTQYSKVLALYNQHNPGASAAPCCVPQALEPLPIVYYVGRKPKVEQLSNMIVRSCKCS

B1: TAF-7 (other)
heavy: EVQLVESGGGLVQPGGSLRLSCAASGYTFTNYGMNWVRQAPGKGLEWVGWINTYTGEPTYAADFKRRFTFSLDTSKSTAYLQMNSLRAEDTAVYYCAKYPHYYGSSHWYFDVWGQGTLVTVSSASTKGPSVFPLAPSSKSTSGGTAALGCLVKDYFPEPVTVSWNSGALTSGVHTFPAVLQSSGLYSLSSVVTVPSSSLGTQTYICNVNHKPSNTKVDKKV[human IgG1 Fc omitted here]GGGGSGGGGSGGGGSGGGGSGIPPHVQKSVNNDMIVTDNNGAVKFPQLCKFCDVRFSTCDNQKSCMSNCSITSICEKPQEVCVAVWRKNDENITLETVCHDPKLPYHDFILEDAASPKCIMKEKKKPGETFFMCSCSSDECNDNIIFSEEYNTSNPD
light: QVQLVESGGGLVQPGGSLRLSCAASGGTFITYAMGWFRQAPGKGLEFVAGISWSGSSTYYADSVKGRFTISRDNSKNTLYLQMNSLRAEDTAVYYCAAKISGATREHLRTSYDYWGQGTLVTVSSDIQMTQSPSSLSASVGDRVTITCSASQDISNYLNWYQQKPGKAPKVLIYFTSSLHSGVPSRFSGSGSGTDFTLTISSLQPEDFATYYCQQYSTVPWTFGQGTKVEIKRTVAAPSVFIFPPSDEQLKSGTASVVCLLNNFYPREAKVQWKVDNALQSGNSQESVTEQDSKDSTYSLSSTLTLSKADYEKHKVYACEVTHQGLSSPVTKSFNRGEC
With B1 the “Anti-VEGF activity (IC50, nM); luciferase reporter, HEK293-NFAT-KDR cells stimulated with VEGF” value (“Anti-VEGF activity (IC50, nM)” below) [1] was 0.465 nM and the “Anti-TGFβ activity (IC50, nM); luciferase reporter, TGFβ-4T1 cells stimulated with TGFβ1” value (shortened to “Anti-TGFβ activity (IC50, nM)”) [2] was 0.227 nM.

B2: TAF-8 (other)
heavy: EVQLVESGGGLVQPGGSLRLSCAASGYTFTNYGMNWVRQAPGKGLEWVGWINTYTGEPTYAADFKRRFTFSLDTSKSTAYLQMNSLRAEDTAVYYCAKYPHYYGSSHWYFDVWGQGTLVTVSSASTKGPSVFPLAPSSKSTSGGTAALGCLVKDYFPEPVTVSWNSGALTSGVHTFPAVLQSSGLYSLSSVVTVPSSSLGTQTYICNVNHKPSNTKVDKKV[human IgG1 Fc omitted here]GGGGSGGGGSGGGGSGGGGSGIPPHVQKSVNNDMIVTDNNGAVKFPQLCKFCDVRFSTCDNQKSCMSNCSITSICEKPQEVCVAVWRKNDENITLETVCHDPKLPYHDFILEDAASPKCIMKEKKKPGETFFMCSCSSDECNDNIIFSEEYNTSNPD
light: QVQLVESGGGLVQPGGSLRLSCAASGRTFSTHSMGWFRQAPGKGLEFVAAINWNGDSTYYADSVKGRFTISRDNSKNTLYLQMNSLRAEDTAVYYCAARPGAPSTIVAMLDYWGQGTLVTVSSDIQMTQSPSSLSASVGDRVTITCSASQDISNYLNWYQQKPGKAPKVLIYFTSSLHSGVPSRFSGSGSGTDFTLTISSLQPEDFATYYCQQYSTVPWTFGQGTKVEIKRTVAAPSVFIFPPSDEQLKSGTASVVCLLNNFYPREAKVQWKVDNALQSGNSQESVTEQDSKDSTYSLSSTLTLSKADYEKHKVYACEVTHQGLSSPVTKSFNRGEC
In the case of B2, the “Anti-VEGF activity (IC50, nM)” value [1] is reported as 0.511 nM and the “Anti-TGFβ activity (IC50, nM)” value [2] is reported as 0.199 nM.

B3: TAF-6 (other)
heavy: QVQLVESGGGLVQPGGSLRLSCAASGGTFITYAMGWFRQAPGKGLEFVAGISWSGSSTYYADSVKGRFTISRDNSKNTLYLQMNSLRAEDTAVYYCAAKISGATREHLRTSYDYWGQGTLVTVSSEVQLVESGGGLVQPGGSLRLSCAASGYTFTNYGMNWVRQAPGKGLEWVGWINTYTGEPTYAADFKRRFTFSLDTSKSTAYLQMNSLRAEDTAVYYCAKYPHYYGSSHWYFDVWGQGTLVTVSSASTKGPSVFPLAPSSKSTSGGTAALGCLVKDYFPEPVTVSWNSGALTSGVHTFPAVLQSSGLYSLSSVVTVPSSSLGTQTYICNVNHKPSNTKVDKKV[human IgG1 Fc omitted here]GGGGSGGGGSGGGGSGGGGSGIPPHVQKSVNNDMIVTDNNGAVKFPQLCKFCDVRFSTCDNQKSCMSNCSITSICEKPQEVCVAVWRKNDENITLETVCHDPKLPYHDFILEDAASPKCIMKEKKKPGETFFMCSCSSDECNDNIIFSEEYNTSNPD
light: DIQMTQSPSSLSASVGDRVTITCSASQDISNYLNWYQQKPGKAPKVLIYFTSSLHSGVPSRFSGSGSGTDFTLTISSLQPEDFATYYCQQYSTVPWTFGQGTKVEIKRTVAAPSVFIFPPSDEQLKSGTASVVCLLNNFYPREAKVQWKVDNALQSGNSQESVTEQDSKDSTYSLSSTLTLSKADYEKHKVYACEVTHQGLSSPVTKSFNRGEC
In the case of B3, the “Anti-VEGF activity (IC50, nM)” value [1] is reported as 0.509 nM and the “Anti-TGFβ activity (IC50, nM)” value [2] is reported as 0.201 nM.

B4: TAF-6a (other)
heavy: QVQLVESGGGLVQPGGSLRLSCAASGGTFITYAMGWFRQAPGKGLEFVAGISWSGSSTYYADSVKGRFTISRDNSKNTLYLQMNSLRAEDTAVYYCAAKISGATREHLRTSYDYWGQGTLVTVSSEVQLVESGGGLVQPGGSLRLSCAASGYTFTNYGMNWVRQAPGKGLEWVGWINTYTGEPTYAADFKRRFTFSLDTSKSTAYLQMNSLRAEDTAVYYCAKYPHYYGSSHWYFDVWGQGTLVTVSSASTKGPSVFPLAPSSKSTSGGTAALGCLVKDYFPEPVTVSWNSGALTSGVHTFPAVLQSSGLYSLSSVVTVPSSSLGTQTYICNVNHKPSNTKVDKKV[human IgG1 Fc with changes omitted here]GGGGSGGGGSGGGGSGGGGSGIPPHVQKSVNNDMIVTDNNGAVKFPQLCKFCDVRFSTCDNQKSCMSNCSITSICEKPQEVCVAVWRKNDENITLETVCHDPKLPYHDFILEDAASPKCIMKEKKKPGETFFMCSCSSDECNDNIIFSEEYNTSNPD
light: DIQMTQSPSSLSASVGDRVTITCSASQDISNYLNWYQQKPGKAPKVLIYFTSSLHSGVPSRFSGSGSGTDFTLTISSLQPEDFATYYCQQYSTVPWTFGQGTKVEIKRTVAAPSVFIFPPSDEQLKSGTASVVCLLNNFYPREAKVQWKVDNALQSGNSQESVTEQDSKDSTYSLSSTLTLSKADYEKHKVYACEVTHQGLSSPVTKSFNRGEC
With B4 the “Anti-VEGF activity (IC50, nM)” value [1] was 0.444 nM and the “Anti-TGFβ activity (IC50, nM)” value [2] was 0.234 nM.

B5: TAF-6b (other)
heavy: QVQLVESGGGLVQPGGSLRLSCAASGGTFITYAMGWFRQAPGKGLEFVAGISWSGSSTYYADSVKGRFTISRDNSKNTLYLQMNSLRAEDTAVYYCAAKISGATREHLRTSYDYWGQGTLVTVSSEVQLVESGGGLVQPGGSLRLSCAASGYTFTNYGMNWVRQAPGKGLEWVGWINTYTGEPTYAADFKRRFTFSLDTSKSTAYLQMNSLRAEDTAVYYCAKYPHYYGSSHWYFDVWGQGTLVTVSSASTKGPSVFPLAPSSKSTSGGTAALGCLVKDYFPEPVTVSWNSGALTSGVHTFPAVLQSSGLYSLSSVVTVPSSSLGTQTYICNVNHKPSNTKVDKKV[human IgG1 Fc omitted here]GGGGSGGGGSGGGGSGGGGSTIPPHVQKSVNNDMIVTDNNGAVKFPQLCKFCDVRFSTCDNQKSCMSNCSITSICEKPQEVCVAVWRKNDENITLETVCHDPKLPYHDFILEDAASPKCIMKEKKKPGETFFMCSCSSDECNDNIIFSEEYNTSNPD
light: DIQMTQSPSSLSASVGDRVTITCSASQDISNYLNWYQQKPGKAPKVLIYFTSSLHSGVPSRFSGSGSGTDFTLTISSLQPEDFATYYCQQYSTVPWTFGQGTKVEIKRTVAAPSVFIFPPSDEQLKSGTASVVCLLNNFYPREAKVQWKVDNALQSGNSQESVTEQDSKDSTYSLSSTLTLSKADYEKHKVYACEVTHQGLSSPVTKSFNRGEC
With B5 the “Anti-VEGF activity (IC50, nM)” value [1] was 0.54 nM and the “Anti-TGFβ activity (IC50, nM)” value [2] was 0.213 nM.
